Results from paper PMC6212790.
This is one part of the list. At the low end of the ranking the order means little.

biological target: T1, GST-Rok-C97-191 (UniProt O34857); test: protein binding microarray; conditions: Rok is a gene silencer of Bacillus subtilis; high values mean tight binding; most listed sequences are background and not binding sites; double strand, one strand shown;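 note: rank score from −0.5 (least bound) to 0.5 (best bound)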
T1 sequence: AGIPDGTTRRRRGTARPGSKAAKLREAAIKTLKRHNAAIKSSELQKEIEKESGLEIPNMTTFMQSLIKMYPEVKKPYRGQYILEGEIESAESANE

Sequence | binding signal [E-score]
ACAACTAA | 0.136
ACTTGCAG | 0.0435
ACCCCGTA | -0.101
CTCCACCC | -0.221
CACCCACC | -0.147
AGTCTAGC | 0.0122
CCGTAGCG | -0.0263
GATAGAGC | -0.0336
ACGACAAT | 0.132
AGGCCTCA | -0.23
CTCTTAGA | -0.0403
AGCCACAC | -0.246
GATGATCA | 0.0879
AGTGCGCC | -0.0742
CCCGATTC | -0.316
GAATGAAA | 0.01
CCCCCTTC | -0.396
GGCAAACA | -0.0846
CAGACTCA | -0.229
ACCGACTC | -0.0597
CACTGATA | -0.0443
AAGTTCGT | -0.0647
TAGCACTA | 0.191
CAAAGGTG | -0.221
ACATTCCA | 0.0235

Sequence | binding signal [E-score]
ACAATAAT | 0.251
AGTGCAAC | -0.215
ATTCGTCC | -0.11
GGCTACCA | -0.0181
AAACTCTG | 0.0882
CTTCCATA | -0.0121
CGATTAAA | 0.119
ACTGGTGA | -0.0162
ACATGCCA | -0.0276
CCTCCTAA | -0.0537
GCACTCCC | -0.276
GGGCATAA | -0.109
CTTCGAAA | -0.113
ATTAATGC | 0.154
AGGGACCG | -0.299
TTGAGCAA | 0.035
ATTCGCAG | -0.0515
CATTCGGA | 0.0299
CACGTTTA | -0.0745
AGGTGTTG | 0.0432
ACCTATCT | 0.293
CAGCCAGA | -0.104
CCTTGGAG | -0.145
AGTACACC | 0.0138
ATCGGTTA | 0.0215

Sequence | binding signal [E-score]
AGTCCTCC | -0.0852
ACAACTCA | 0.0783
ATAACACG | 0.11
GAATTCGA | 0.192
TAACCACA | -0.00749
CTGAGCAG | -0.243
TAACTCCA | 0.0761
CAAACTAA | 0.374
ACAGGCAC | -0.0537
CCTACTGC | -0.027
ACTCGAGC | -0.03
ATGAGCCA | -0.0549
CCAAATTA | 0.324
ATAGACCC | -0.12
GCTTCCTA | -0.071
ATATTGAG | 0.155
CGGGCCAA | -0.193
CTGTATAC | 0.172
CCTCCCGA | -0.0654
GAGTAGAC | -0.107
AGGGGGCA | -0.249
AAGCACGC | -0.101
CTGTGAAA | -0.0748
CGTGTGGC | -0.156
CGGATTAA | 0.0741

Sequence | binding signal [E-score]
CTTTCCCA | -0.31
CTTATTTC | 0.221
CAGAAGCC | -0.158
AACATTCG | 0.0387
ATCCTCTA | 0.0855
TAATATCA | 0.282
ACAAGGGC | -0.198
CATACTCA | 0.0499
GTCCCGAA | -0.314
CACCCAGC | -0.118
GCTACCAC | 0.0411
AGGCAATG | -0.142
ACGCCTTG | -0.338
CCCTATCC | -0.154
ACTGTCCG | -0.0981
GTATCCCA | 0.0935
CACTACCC | -0.0292
CTAAGTAC | 0.245
CGAATGCG | -0.135
CAATCACC | -0.0486
GGAGTCCC | -0.039
ACAGTGAG | -0.0372
CCGAAGAC | -0.137
ACATTGGC | -0.0629
CAGGGATA | -0.133

Sequence | binding signal [E-score]
CCGGAGAG | -0.244
AAGACATC | -0.0409
TGAACAAA | -0.124
AGGCCCAG | -0.0838
TCTTAAGA | 0.0975
CCTCCTCG | -0.258
ATGACGTG | -0.113
GCCCGGGC | -0.409
ATATGACC | 0.15
AATCCATG | -0.019
AGGGTTGG | -0.162
CACAGACG | -0.0542
ACTTATGG | 0.011
GCGTGGCC | -0.278
TCAAGGAA | -0.0876
CAGTCCGC | -0.361
GCTTAGGA | -0.0674
ATTAATAA | 0.234
AACGCTCA | 0.0171
GTAACCGA | -0.0498
GTTCTTAA | 0.193
CGGTCAAC | -0.0555
CCTACCCA | -0.17
TCGCGCCA | -0.126
ACTGATAA | 0.287

Sequence | binding signal [E-score]
ACTTTTAC | 0.218
CTAATAGC | 0.294
CCGGTTCC | -0.144
CTCGTTGA | -0.00076
ACTATACC | 0.21
AAAACACC | 0.111
ATCAGAAT | 0.064
ATACACAA | 0.0784
AGCATACG | -0.0107
GTTGCGTA | -0.0822
AATGACAG | -0.102
CGGATATC | 0.0392
ACACCTGA | -0.0165
TTACAGAA | 0.16
TATCAAGA | 0.0331
AGACTCGC | -0.123
CGAGTGTA | 0.097
AAACAATC | 0.0266
GCGACTAC | 0.0895
AGGCAGGA | 0.0634
GCCGATAC | -0.0184
AAGACTTC | -0.0221
AAGCCGGC | -0.114
ATTTGTAC | 0.333
TGACCGCA | -0.102

Sequence | binding signal [E-score]
CACGATCG | -0.0966
TGGTAGAA | 0.468
AAGAAGAG | -0.15
CCTATTAG | 0.16
CCCGCTGC | -0.284
ATTTGCCC | -0.0766
ACCTCACC | -0.0594
AGCCTAGC | -0.183
ATGGAAAC | 0.0822
GCGAGTAA | 0.157
CGTCAGAA | -0.19
GGGTCATA | 0.0189
CTTATAAA | 0.0788
AGGAACCG | -0.152
ACGGCTCG | -0.153
GGGGCACC | -0.375
CCGCAAAG | -0.219
GCTAGGGA | -0.142
AGGGCAAA | 0.0239
CAGACTAC | 0.131
AATAGACG | -0.21
GCGGGTGA | -0.192
CGACCGCA | -0.158
CTACTAAA | 0.379
AGTCCCTA | -0.0161

Sequence | binding signal [E-score]
CGTCCATC | -0.254
CCCGTACC | -0.179
AATAGGTG | 0.162
ATCCCCTG | 0.132
GTTGGATA | 0.112
GAGACCCC | -0.313
CAGAATGC | -0.188
ATACTGTA | 0.334
TAGCCGGA | 0.0621
GCTTTGCC | -0.232
CACACCAG | -0.0205
GTCTTTCA | -0.0106
GCCGAGAC | -0.0846
AACACAAC | -0.0365
GTAAGTAC | 0.281
ATTGGACA | 0.0233
AAGGATGA | -0.0751
AAATACGG | 0.213
CTATCTCC | 0.0551
CTGGTTAA | 0.0435
AGTACCCA | 0.0119
AATTGGTC | -0.0353
AACCTGGT | -0.161
ATCTCAAC | 0.0312
AACACACC | 0.0125

Sequence | binding signal [E-score]
GATGGTAC | -0.094
CTAGTAAC | 0.27
CCTACGCA | -0.0433
AGCGCCGA | -0.217
GAGTTCAA | 0.00845
CGCAGGCC | -0.412
CAGAGCCA | -0.292
ATCGACGG | -0.143
TAAGTTGA | 0.114
CCGCCATC | -0.27
CCCTAGAG | -0.0794
AAAACACG | 0.11
CTCACGGC | -0.0132
ATTGGATC | -0.0246
ATCGCACA | -0.147
ACCACAGG | -0.18
CTGGTAGC | -0.00597
ACCCTTCC | -0.156
AGTGCTCA | -0.00672
CGTAACCC | -0.219
AGATCTTA | 0.233
CCACCTTA | -0.0737
ATATTGAT | 0.232
ACTTTCGC | 0.0461
AAGACTGT | -0.00412

Sequence | binding signal [E-score]
ATATGATG | 0.276
CGGCGAAA | 0.00492
AGGCACAC | -0.195
GGCTGTAC | -0.276
GTCTTGCA | 0.0175
CTACACTC | -0.0438
GAGCCGTA | -0.113
GATAATCA | 0.0131
AGAGCATG | -0.201
CGATGTTA | -0.0425
GAGGCGAA | -0.139
GATTGCCA | -0.11
CCTGCACC | -0.27
ACATTCGA | 0.071
AGCTATAA | 0.174
ATAAACAC | 0.18
CCCGACGA | -0.11
AACTAAAA | 0.347
ATAAATAA | 0.269
AGCAGCAA | -0.121
AGGAGTAT | 0.174
AAGAACAA | 0.00476
AACCGGCT | -0.206
GTACACCA | 0.118
CATTGAGG | -0.0938

Sequence | binding signal [E-score]
TCAGGCAA | -0.134
AAAGTCCG | -0.0193
CGACCTCC | -0.318
ATTCTTTG | 0.0592
CTGAACGA | -0.199
ACTGAACG | 0.0112
CACAGGGC | -0.285
CCCCAGGA | -0.239
CGGGGTCC | -0.299
TATGCTCA | -0.127
ACTTTCCC | -0.00799
CCGAAGAG | -0.178
ACAGGCGT | -0.077
ACTGCGTA | -0.0378
CCATGTAC | 0.185
ATACGGTC | -0.0487
GCAGAAAC | -0.0283
TGAGACAA | -0.108
AATCATGA | 0.00714
CTCCGTCC | -0.242
ATGCGTTA | 0.00394
GGGCAGTA | 0.00262
AGCGCCGC | -0.349
ATAGCCTA | 0.0277
GAATCCTA | -0.0148

Sequence | binding signal [E-score]
AACGTGCT | -0.0614
CATAACAG | 0.108
AGGCTGGA | -0.2
CTACTATA | 0.371
ATGAACAC | -0.0606
CGGACAGC | -0.0658
ACTCTCAC | 0.104
CTTCGATA | 0.0594
CCCCCTGA | -0.365
CTCGCACA | -0.361
ACTCACAG | 0.008
TCTAACAA | 0.0392
CTCGGAAC | -0.212
ACCTCCGA | -0.118
TAGCAACA | 0.228
TAACACAA | 0.0622
CAAATCCA | -0.0871
CTAATGCC | 0.136
CAGCCTAC | 0.111
AAGTGGGA | -0.174
CCGAACCA | -0.0575
TTGCCAAA | 0.142
ACGAATCC | 0.043
ACTGTTAT | 0.307
GACTCGCA | -0.105

Sequence | binding signal [E-score]
CGCCCCCG | -0.235
CGTACCAC | -0.112
CTCTTTAC | 0.0967
AATGGGAA | -0.015
AGTAGCAC | 0.17
ATCAGGCC | -0.159
CACGAATA | 0.112
TCACGCGA | -0.0183
AAGCGTCT | -0.127
AGCTATCA | 0.335
GACTGACC | 0.0353
CGCGAATA | -0.102
ACAATAGA | 0.233
CTAGAGTA | 0.159
CGCCTCTC | -0.278
AACGTGCA | 0.206
ACGTGATG | -0.0993
ACGCTCGC | -0.139
AGAACCAA | -0.065
ATGCGGTA | 0.139
CGGTAGAA | 0.411
AGCATTCG | 0.0991
ACAAATAT | 0.337
GGGGCTAA | -0.0896
CTGGTCTC | 0.0502

Sequence | binding signal [E-score]
ACATACAT | 0.235
ATCTCTAC | 0.118
ACATCATA | 0.137
CCGTAAAG | -0.0699
TCATCTAA | -0.0045
CATGCACA | -0.138
GCCGTGCC | -0.345
AATGTTTG | 0.0919
CCATATCA | 0.00206
AATAGCCA | -0.00528
ACATCCTC | -0.0024
ACCTTAGA | -0.0636
CTAGGGTC | -0.149
GGCGAGCA | -0.323
CACCGTTA | 0.0219
CACCCGGC | -0.0405
GGGCGGGA | -0.221
ACCTTGCC | -0.00773
GTGTAACA | 0.137
